According to the RNAGym collection of RNA variant scans (doi:10.1093/nar/gkz1192):
The source gives no read counts; variants with many changes may rest on few reads.

B1: CPEB3 Ribozyme (parent)
chain: UAACAGGGGGCCACAGCAGAAGCGUUCACGUCGCAGCCCCUGUCAGAUUCUGGUGAAUCUGCGAAUUCUGCUGUAUAUCUC

Variants of: B1
Test: self-cleavage, relative activity (ratio to wild type); higher = more cleavage; in vitro, sequencing
In short: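 Libraries of CPEB3 self-cleaving ribozyme mutants came from rounds of error-prone PCR and carried barcodes, which DNA sequencing matched to variants. In vitro transcription used T7 RNA polymerase at 37°C for 5 hours, with a further 15 min in DNase I before EDTA stopped the reaction; the ribozymes cleaved during both steps. The RNA was reverse transcribed with template switching and sequenced on Illumina. Relative activity is the cleaved/total read fraction of a variant divided by that of the unmutated ribozyme, averaged over three batches with at least 5 reads.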

| Variant | self-cleavage |
| --- | --- |
| UAACAGGGGGCCACAGCAGAAGCGUACACAUCGCUGCCCCUGUCAGAGUCUGGUGCAUCUGCGAAUUCUGCUGUAUAUCUC [U26A G30A A35U U48G A56C] | 0.09 |
| UAACAGGGGGCCACAGCAGAAGCGUACACAUCGCAGCCCCUGUCAGAUUCUGGUGAGUCUGCGAAUACCGCUGUAUAACUC [U26A G30A A57G U67A U69C U78A] | 0.08 |
| UAACAGGGGGCCACAGCAGAAGCGUACACUUCGCAGCCCCUGUCAGGUUCUGGUGAAUCUGCGAACUCUGCUGUAUAUCCC [U26A G30U A47G U66C U80C] | 0.06 |
| UAACAGGGGGCCACAGCAGAAGCGUACACGUCAUAGCCCCUGUCGGAUUCUGGUGAAUCUGCGAAUUCUGCUGUAUAUCUC [U26A G33A C34U A45G] | 0.08 |
| UAACAGGGGGCCACAGCAGAAGCGUACACGUCACAGCCCCUGUCAAAUUCCGGUGAAUCUGCGAACUCUGCUGUAUACCAC [U26A G33A G46A U51C U66C U78C U80A] | 0.12 |
| UAACAGGGGGCCACAGCAGAAGCGUACACGUCCCAGCCCCUGUCAGAUUCUAGUGAAUCUGCGAAUUCUGCUGUAUAUCUC [U26A G33C G52A] | 0.14 |
| UAACAGGGGGCCACAGCAGAAGCGUACACGUCGCAACCCCUGUCGGAUUCUGGUGAAUCUGCGAAUACUGCUGUAUAUCUC [U26A G36A A45G U67A] | 0.09 |
| UAACAGGGGGCCACAGCAGAAGCGUACACGUCGCACCCCCUGUCAGAUUCUGGUGAAUCUGCGAAUCCUGCUGUAAAUCUC [U26A G36C U67C U76A] | 0.09 |
| UAACAGGGGGCCACAGCAGAAGCGUACACGUCGCAGCCCCUAUCAGAUUCUGGAGAAUCAGCGAAUUCUGCUGUAUGUCCC [U26A G42A U54A U60A A77G U80C] | 0.06 |
| UAACAGGGGGCCACAGCAGAAGCGUACACGUCGCAGCCCCUUUCUGACUCUGGAGAAUCUGCGAAUUCUGCUGUAUAUCUC [U26A G42U A45U U48C U54A] | 0.07 |
| UAACAGGGGGCCACAGCAGAAGCGUACACGUCGCAGCCCCUGUCAAAUUCUGGUGAAUCUGCGUAUUCUGCUGUACAUCUC [U26A G46A A64U U76C] | 0.14 |
| UAACAGGGGGCCACAGCAGAAGCGUACACGUCGCAGCCCCUGUCAUAUUCUGGUGAAUCUGCGGAUUCUGCCGUAUAUCUC [U26A G46U A64G U72C] | 0.17 |
| UAACAGGGGGCCACAGCAGAAGCGUACACGUCGCAGCCCCUGUCAGAUUCUUGUGAAUCUGCGGAUUCUGCUGUAUACCUC [U26A G52U A64G U78C] | 0.72 |
| UAACAGGGGGCCACAGCAGAAGCGUACACGUCGCAGCCCCUGUCAGAUUCUGGUGAAUCUGCCAAUUCUGCCGUAUAUCUC [U26A G63C U72C] | 1.09 |
| UAACAGGGGGCCACAGCAGAAGCGUACACGACGCAGACCCUGUCAGAUCCUGGUGAGCCUGCGAAUUCUGCUGUAUAUCUC [U26A U31A C37A U49C A57G U58C] | 0.14 |
| UAACAGGGGGCCACAGCAGAAGCGUACACGACGCAGCCCCUGUCAGAUUCUGGUGAAUCUGGGGAGUCUGCUGUAUAUCUC [U26A U31A C62G A64G U66G] | 0.09 |
| UAACAGGGGGCCACAGCAGAAGCGUACACGACGCAGCCCCUGUCAGAUUCUAGUGAAUCUGCGAAUUCUGCUGUAUAUCCC [U26A U31A G52A U80C] | 0.44 |

| Variant | self-cleavage |
| --- | --- |
| UAACAGGGGGCCACAGCAGAAGCGUACACGACGCAGCCCCUGUCAGAUUCAGGUGAAUCUGCGAGUUCUGCUGUAUAUCUC [U26A U31A U51A A65G] | 0.21 |
| UAACAGGGGGCCACAGCAGAAGCGUACACGACGCAGCCCCUGUCAGAUUCCGGUGAAUCUGCGAAUUCUGCUGUAUAUCUC [U26A U31A U51C] | 0.33 |
| UAACAGGGGGCCACAGCAGAAGCGUACACGACGCAGCCCCUGUCAGAUUCUGGCGAAUCUGCGAAUUCUGCUGUAUAUCUC [U26A U31A U54C] | 0.29 |
| UAACAGGGGGCCACAGCAGAAGCGUACACGCCGCAGCCCCUGUCUGAUUCUGGUGAAUCUGCGAAUUCUGCUGUAUAUCUC [U26A U31C A45U] | 0.34 |
| UAACAGGGGGCCACAGCAGAAGCGUACACGCCGCAGCCCCUGUCAGAUUCUGGUGAAUCUGCGUAUCCUGCUGUAUAUCUC [U26A U31C A64U U67C] | 0.34 |
| UAACAGGGGGCCACAGCAGAAGCGUACACGCCACAGCCCCUGUCAGAUUCAGGUGAAUCUGCGCAUUCUGCUGUAUAUCUC [U26A U31C G33A U51A A64C] | 0.06 |
| UAACAGGGGGCCACAGCAGAAGCGUACACGCCGCAGCCCCCGUCAGAUUCUGGUGAAUCUGCGGAUUCUGCUGUAUAUCUC [U26A U31C U41C A64G] | 0.3 |
| UAACAGGGGGCCACAGCAGAAGCGUACACGCCGCAGCCCCCGUCAGAUUCUGGUGAAUUUGCGAAUUCUGCUGUAUAUCUC [U26A U31C U41C C59U] | 0.32 |
| UAACAGGGGGCCACAGCAGAAGCGUACACGCCGCAGCCCCUGUCAGAUCCUGGUGAAUCUGCGUAUUCUGCUGUAUAUCUC [U26A U31C U49C A64U] | 0.05 |
| UAACAGGGGGCCACAGCAGAAGCGUACACGCCGCAGCCCCUGUCAGAUCUUGGUGAAUCUGCGAAUUCUGCUGUAUAUCUC [U26A U31C U49C C50U] | 0.45 |
| UAACAGGGGGCCACAGCAGAAGCGUACACGCCGCAGCCCCUGUCAGAUUCAGGUGAAUGUGCGAAUUCAGCUGUAUUUCUC [U26A U31C U51A C59G U69A A77U] | 0.07 |
| UAACAGGGGGCCACAGCAGAAGCGUACACGCCGCAGCCCCUGUCAGAUUCUGGUGAAUCUGCGAACUCUGCUGUAUAUCCC [U26A U31C U66C U80C] | 0.16 |
| UAACAGGGGGCCACAGCAGAAGCGUACACGCCGCAGCCCCUGUCAGAUUCUGGUGAAUCUGCGAAUUCUGCCGUAUAUCUC [U26A U31C U72C] | 0.82 |
| UAACAGGGGGCCACAGCAGAAGCGUACACGUCGCAGCCCCAGUCAGAUUCUGGUGAGUCUGCGAAUUCUGCUGUAUAUCUC [U26A U41A A57G] | 0.16 |
| UAACAGGGGGCCACAGCAGAAGCGUACACGUCGCAGCCCCAGUCAGAUUCUGGUGAAUCUGCGAAUCCUGCUGUAUACCUC [U26A U41A U67C U78C] | 0.18 |
| UAACAGGGGGCCACAGCAGAAGCGUACACGUCGCAGCCCCAGUCAGAUUCUGGUGAAUCUGCGAAUUCUGCAGUAUAUCUC [U26A U41A U72A] | 0.13 |
| UAACAGGGGGCCACAGCAGAAGCGUACACGUCGCAGCCCCCGUCUGAUUCUGGUGAAUCUGCGAAUUCUGCUGUAUAUCUC [U26A U41C A45U] | 0.49 |
